Out of some 72,000 compounds screened, about 710 (0.99%) were called active. The inconclusive results got no clear call from the source; some entries with a clear call stand among them for comparison. Calls follow the shape of the dose curve; as a rule, active = well fitted inhibition curve with a large enough effect; inconclusive = small, poorly fitted or top-dose-only effect; inactive = no such curve, though single readings can be large or run the other way. Potencies of inconclusive entries are left out as doubtful fits.
assay: qHTS Assay for Inhibitors of the ERK Signaling Pathway using a Homogeneous Screening Assay; details: HEK293-V1b, vasopressin-stimulated pERK AlphaScreen; series mostly up to 57.5 µM; also: nearly all actives have a fitted effect of over 55% in size
How it was run: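 HEK293 cells stably expressing V1b receptor, preincubated 30 min at 37 °C with compound, then stimulated 5 min with 25 nM vasopressin. Phospho-ERK by AlphaScreen SureFire after 5 h RT; normalized to DMSO and vasopressin; AC50 by Hill fit.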
Potency is read from the fitted curve at half-maximal effect; tags tell the direction and shape of the fitted curve.

SMILES	Potency
Cn1c(=O)[nH]c(=O)c2c1nc(SCC(O)CO)n2Cc1ccccc1Cl (stereo not given)	inconclusive [inhibitor, partial curve]
Clc1nc2sccn2c1/C=N/n1cnc2ccccc21	inconclusive [inhibitor, partial curve]
O=C(c1ccc(Cl)cc1)c1nnc(-c2ccncc2)o1	inconclusive [inhibitor, single point]
N#Cc1c(N)n(C2CCCCC2)c2nc3ccccc3nc12	inconclusive [inhibitor, single point]
Cc1c(/C(O)=C2/C(=O)C(=O)N(CCN3CCOCC3)C2c2cccs2)cnn1-c1ccccc1 (stereo not given)	inactive
COc1ccc(CC(=O)Nc2nccs2)cc1OC	inconclusive [inhibitor, full curve, poor fit]
CCCCCCOC(=O)C(C#N)c1nc2ccccc2nc1N1CCN(CC)CC1 (stereo not given)	inactive
O=C(c1ccncc1)N1CCC2(CCN(Cc3ccccc3)CC2)CC1	inactive
CCOc1cccc(NC(=O)C2CC(=O)N(C)C(=Nc3ccccc3)S2)c1 (stereo not given)	inconclusive [inhibitor, partial curve, poor fit]
COc1cccc(Cn2c(=O)c(-c3ccc(F)cc3)nc3cnc(N4CCNCC4)nc32)c1	inconclusive [inhibitor, single point]
CCCn1c(-c2ccc(F)cc2)nc2c(NC(C)CCCN(CC)CC)nc(C)nc21 (stereo not given)	inactive
CN(C)S(=O)(=O)c1ccc2c(c1)c(=O)c(C(=O)NCCCN1CCCCCC1)cn2C	active: 15.8 µM
Clc1nccc2c1ccc1ccccc12	inconclusive [inhibitor, single point]
O=S(=O)(Nc1cccc2ncccc12)c1cccs1	inactive
Oc1ccc(Cl)cc1-c1cc(-c2ccccc2)n[nH]1	inconclusive [inhibitor, single point]
CS(=O)(=O)c1ccc(Cn2c3c(c4cc(F)cc(F)c42)CCC[C@H]3CC(=O)O)cc1	inconclusive [inhibitor, single point]
COCCN(CCOC)S(=O)(=O)c1ccc(C(=O)Nc2nnc(C)o2)cc1	inactive
Cn1c(CSCc2ccc(Cl)c(Cl)c2)nnc1SCC(=O)Nc1nccs1	inconclusive [inhibitor, partial curve]
CCc1cc(C=NC2CCCCC2)c(O)s1	inconclusive [inhibitor, partial curve]
COC(=O)c1ccc(O)c(Sc2cc(C(=O)OC)ccc2O)c1	inactive
CCOc1ccc(NC(=O)c2cccc3c2C(=O)N(Cc2cccnc2)C3)cc1	inactive
O=C(NCc1ccco1)c1cccc(S(=O)(=O)N2CCOCC2)c1	inconclusive [inhibitor, partial curve]
Cc1ccccc1NC(=O)c1ccccc1O	inconclusive [inhibitor, partial curve]

SMILES	Potency
CCN1C(=O)/C(=C\N2CCN(c3ccccc3)CC2)SC1=S	inconclusive [inhibitor, single point]
CC(=O)c1cccc(NC(=O)N2CCCC2C(=O)Nc2cc(C)ccc2C)c1 (stereo not given)	inconclusive [inhibitor, single point]
COc1ccc(-c2nnc3ccc(SCC(=O)NCc4ccco4)nn23)cc1OC	inactive
Cc1nn(CC(=O)Nc2ccc(C(=O)N3CCCC3)cc2)c(=O)c2ccccc12	inconclusive [inhibitor, single point]
O=C(NCc1ccc2c(c1)OCO2)C1CCC(CNc2c(N3CCCC3)c(=O)c2=O)CC1 (stereo not given)	inconclusive [inhibitor, partial curve]
Cc1nn2c(C(F)(F)F)cc(-c3ccc(Cl)cc3)nc2c1C(=O)N1CCOCC1	inconclusive [inhibitor, full curve, poor fit]
COc1ccccc1Nc1nnc(SCC(=O)N2CCCC2=O)s1	inactive
CCOC(=O)c1cnc(-n2nc(C)cc2C)nc1NCc1ccccc1	inconclusive [inhibitor, single point]
COc1cccc(Cn2c(=O)c(-c3cccc(C#N)c3)nc3cnc(OC)nc32)c1	inconclusive [inhibitor, single point]
O=C(Nc1ccccc1)c1ccc2nc(-c3ccco3)c(-c3ccco3)nc2c1	inconclusive [inhibitor, partial curve]
Nc1nc2n(n1)C(c1ccco1)CC(c1ccc(Cl)cc1Cl)N2 (stereo not given)	inconclusive [inhibitor, partial curve, poor fit]
COc1ccc(CC(=O)Nc2cccc(-c3nnc(-c4ccc(C)cc4)o3)c2)cc1OC	active: 7.94 µM
CCN(Cc1ccccc1)C(c1ccccn1)c1nnnn1C(C)(C)CC (stereo not given)	inactive
CC(=O)N1c2c(cc(Br)cc2S(=O)(=O)N2CCN(c3ccccn3)CC2)CC1C (stereo not given)	inconclusive [inhibitor, partial curve]
NC(=O)COC(=O)c1ccc(S(=O)(=O)N2CCCCCC2)cc1	inconclusive [inhibitor, single point]
Cc1cccc(-c2c3c(=O)n(C)c(=O)n(C)c3cn2C(C)C)c1	inconclusive [inhibitor, partial curve]
COC(=O)[C@@]1(Cc2ccccc2)[C@H]2c3cc(C(=O)N4CCCC4)n(CC4CC4)c3C[C@H]2CN1C(=O)c1ccccc1	inactive
CCN1c2ccccc2NC2N=C(OC)C(c3ccccc3)C21 (stereo not given)	inconclusive [inhibitor, single point]
COc1ccc(C2=NOC(C(=O)NCc3ccc(F)cc3)C2)cc1OC (stereo not given)	inconclusive [inhibitor, full curve]
Cc1ccc(/C=c2\sc3nc(-c4ccco4)nn3c2=O)o1	inactive
N#Cc1cccc(-c2nc3cnc(Nc4ccccc4)nc3n(C[C@H]3CCCO3)c2=O)c1	inconclusive [inhibitor, partial curve]
CCCc1ccc(Oc2c(-c3ccc(O)c(C)c3O)n[nH]c2C)cc1	inconclusive [inhibitor, single point]

Reference: PubChem BioAssay AID995 (National Center for Advancing Translational Sciences (NCATS), 2007)
